Experimental data: US20240018255A1 (QURE BIOTECHNOLOGY SHANGHAI, published 2024)

Biological target: T1, human SIRPα naturally expressed on human renal clear cell adenocarcinoma 786-O cells (human, UniProt P78324 31-504)
T1 construct: whole, on cells
Assay: FACS on 786-O cells, PE-anti human FC secondary, MFI; unit from the axis Log[Abs,nM]
Experimental: Blocking: the cells were resuspended with 2% FBS and were seeded into 96-well U bottom plate with 2E5/well, 200 μl/well, then subjected to ice bath for 1 h. Centrifugation was performed at 300 g for 3 min, and the supernatant was discarded. Antibody incubation: 10 μg/ml antibodies for incubation were diluted at 1:3, 100 μl/well, and subjected to ice bath for 1 h. Centrifugation was performed, and the supernatant was discarded. Pre-cooled PBS was added at 200 μl/well, centrifuged at 300 g for 5 min to discard supernatant, which was repeated twice. Secondary antibody: PE-anti human FC (1:200) 50 μl/well was subjected to ice bath for 0.5h. Centrifugation was performed and the supernatant was discarded. Pre-cooled PBS was added at 200 μl/well, centrifuged at 300 g for 5 min to discard supernatant, which was repeated 3 times. The mean fluorescence values were read on FACS.

T1 sequence (P78324 31-504): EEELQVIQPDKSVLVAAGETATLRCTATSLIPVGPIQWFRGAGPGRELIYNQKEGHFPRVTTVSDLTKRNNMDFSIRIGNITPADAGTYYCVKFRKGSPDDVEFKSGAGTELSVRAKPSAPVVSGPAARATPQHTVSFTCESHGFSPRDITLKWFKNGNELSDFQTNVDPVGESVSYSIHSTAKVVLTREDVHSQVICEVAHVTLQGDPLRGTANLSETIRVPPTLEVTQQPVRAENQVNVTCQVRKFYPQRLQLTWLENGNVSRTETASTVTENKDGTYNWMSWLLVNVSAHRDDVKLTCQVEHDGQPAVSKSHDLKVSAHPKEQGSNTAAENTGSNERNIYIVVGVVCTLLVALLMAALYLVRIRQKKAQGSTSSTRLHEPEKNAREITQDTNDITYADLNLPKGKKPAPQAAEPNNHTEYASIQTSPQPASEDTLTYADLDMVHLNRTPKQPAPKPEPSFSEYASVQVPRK

EC50: 0.179 nM
B1: QP163245 (anti-SIRPα chimeric antibody, variable regions of 71C10, human IgG4/kappa) (antibody)
light: DIVLTQSPASLAVSLGQRATISCRASKSVSSSGYNYIFWYQQKPGQPPKLLIYLASNLDSGVPARFSGSGSGTDFTLNIHPVEEEDAATYYCQHSRELPTFGGGTKLEIKRTVAAPSVFIFPPSDEQLKSGTASVVCLLNNFYPREAKVQWKVDNALQSGNSQESVTEQDSKDSTYSLSSTLTLSKADYEKHKVYACEVTHQGLSSPVTKSFNRGEC
heavy: QVQLQQPGTELVRPGASVKLSCKASGYTFTNYWINWVKQRPGQGLEWIAMIDPSDSETHYNQIFKDKATLTVDKSSNTAYMQLSSLTSGDSAVYYCAMDYGSLYAMDYWGRGTSVTVSSASTKGPSVFPLAPCSRSTSESTAALGCLVKDYFPEPVTVSWNSGALTSGVHTFPAVLQSSGLYSLSSVVTVPSSSLGTKTYTCNVDHKPSNTKVDKRV[not shown - human IgG4 Fc with S228P (EU numbers)]
